Experimental data reported in PubChem BioAssay AID686979 (National Center for Advancing Translational Sciences (NCATS), 2013).
Hit rate of the full screen: of about 420,000 compounds, about 50,000 (12%) were called active. The inconclusive results got no clear call from the source; some entries with a clear call stand among them for comparison. Calls follow the shape of the dose curve; as a rule, active = well fitted inhibition curve with a large enough effect; inconclusive = small, poorly fitted or top-dose-only effect; inactive = flat fitted curve, though single readings scatter. Potencies of inconclusive entries are left out as doubtful fits.

Experiment: qHTS for Inhibitors of human tyrosyl-DNA phosphodiesterase 1 (TDP1): qHTS in cells in presence of CPT; also: nearly all actives have a fitted effect of over 55% in size
Conditions: chicken DT40 Tdp1-/-;hTDP1 cells + 20 nM CPT, ATP luminescence, 48 h; activity change, negative = growth inhibition: at 46.2 µM (top of the series) unless noted
Outline: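 Chicken DT40 Tdp1-/- cells stably complemented with human TDP1 were seeded at 400 cells/well in medium containing 20 nM camptothecin, exposed to pin-transferred compounds, and grown at 37 °C for at least 48 hr. Viability was read as ATP luminescence.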
% is scaled to controls: 0 for no effect and ±100 for the full control effect; potency is read from the fitted curve at half-maximal effect; tags tell the direction and shape of the fitted curve.

Row | Compound | activity change, negative = growth inhibition | Potency
1 | CN(C)N1C(N)=C(C#N)C(c2ccccc2)C2=C1CC(C)(C)CC2=O (configuration not stated) | inactive: -0.315% | –
2 | Cc1ccc(/C=C/c2nnc(-c3ccccc3)o2)cc1 | inactive: -13.9% | –
3 | CCc1ccc(C2C(C#N)=C(N)Oc3cc(N)ccc32)cc1 (configuration not stated) | – | inconclusive [inhibitor, full curve, poor fit]
4 | COc1ccc(NC2=C(c3ccc(C(F)(F)F)cc3)C(=O)c3ccccc32)cc1 | – | inconclusive [inhibitor, single point]
5 | COC(=O)C1=CN(Cc2ccc(F)cc2)C=C(C(=O)OC)C1c1ccc(O)c(OC)c1 | inconclusive: -31.7% [inhibitor] | –
6 | O=C1C(=C2SCCCS2)CC/C1=C\c1ccc(F)cc1 | – | inconclusive [inhibitor, single point]
7 | O=C(O)c1ccccc1N=Nc1ccc(O)cc1 | – | active: 25.9 µM
8 | OCCN(CCO)c1ncnc2c1sc1nc(N3CCOCC3)c3c(c12)CCCC3 | – | active: 16.4 µM
9 | COc1ccccc1C(=O)Nc1c(C(=O)NC(C)(C)C)oc2ccccc12 | – | inconclusive [inhibitor, single point]
10 | COc1cccc(OC)c1OCCNCCO | – | inconclusive [inhibitor, full curve, poor fit]
11 | COc1cccc(OC)c1C(=O)Nc1cc(C)nn1-c1nc2ccccc2[nH]1 | – | active: 16.4 µM
12 | Cc1cc2nccc(C)c2cc1C | inactive: 3.39% | –
13 | COc1cc(/C=N/n2cc(-c3ccccc3)[nH]c2=S)cc(OC)c1O | – | inconclusive [inhibitor, single point]
14 | CCOc1cc(/C=C(/C#N)c2nc3ccccc3[nH]2)ccc1Oc1ccc([N+](=O)[O-])cn1 | – | active: 13 µM
15 | Cc1ccsc1C(=O)N1CCCC(C(=O)c2cc(F)ccc2F)C1 (configuration not stated) | – | inconclusive [inhibitor, single point]
16 | Cc1ccc(NC(=O)CN(C)C2CCCCC2)cc1Br | – | inconclusive [inhibitor, single point]
17 | NC(c1csc(Nc2ncccn2)n1)C1CCCCC1 (configuration not stated) | – | inconclusive [inhibitor, single point]
18 | COc1cc(OC)c(N(C)C(=O)Nc2cn(CC(C)C)c(=O)c3ccccc23)cc1Cl | – | active: 20.6 µM
19 | CN(C)C(=O)c1ccc(NC(=O)c2ccc(-c3ccc(Cl)cc3)o2)cc1 | – | active: 23.1 µM
20 | COc1ccc(Br)cc1C1NC(c2ccc3c(c2)OCO3)=CC(c2ccccc2O)N1 (configuration not stated) | – | inconclusive [inhibitor, single point]
21 | COc1ccc(S(=O)(=O)N2CCN(c3ccccc3OC)CC2)cc1 | – | inconclusive [inhibitor, single point]
22 | CCn1c(=NC(=O)c2ccc(S(=O)(=O)N3CCOCC3)cc2)sc2cccc(OC)c21 | – | active: 14.6 µM
23 | CCOC(=O)c1ccc(NC(=O)c2cn3c4c(ccc(Cl)c4c2=O)OC(C)C3)cc1 (configuration not stated) | inactive: -8.68% | –
24 | O=S(=O)(c1ccc(NC(=S)N/N=C/c2c3ccccc3cc3ccccc23)cc1)N1CCOCC1 | – | active: 2.59 µM
25 | CC(C)C(=O)NC(c1ccco1)c1c(O)ccc2ccccc12 (configuration not stated) | – | inconclusive [inhibitor, partial curve]
26 | O=C1ON(Cc2ccccc2)C(c2ccccc2)N1c1ccccc1 (configuration not stated) | inactive: 6.4% | –

Row | Compound | activity change, negative = growth inhibition | Potency
27 | COc1ccc(CCNC(=O)C(=O)NCC2OCCN2S(=O)(=O)c2ccc3c(c2)OCCO3)cc1OC (configuration not stated) | – | inconclusive [inhibitor, single point]
28 | COc1ccc(OC)c(NC(=O)CCOc2cccc(C)c2)c1 | – | inconclusive [inhibitor, single point]
29 | Cn1c(-c2csc(-c3ccccc3)n2)n[nH]c1=S | – | inconclusive [inhibitor, single point]
30 | CC(NC(=O)Nc1ccc(Cl)cc1)C(c1cccs1)N1CCOCC1 (configuration not stated) | – | inconclusive [inhibitor, single point]
31 | NC(=O)CSc1cn(Cc2ccc(F)cc2)c2ccccc12 | – | inconclusive [inhibitor, single point]
32 | Oc1ccc(CCc2ccccn2)cc1 | – | inconclusive [inhibitor, single point]
33 | CN(c1cc2c(c3c1ccn3C)C1CCC2O1)C1CCCCC1 (configuration not stated) | – | inconclusive [inhibitor, single point]
34 | CCCc1nc2ccc(C(=O)OC)cn2c1Cc1ccc(C)cc1 | – | active: 18.4 µM
35 | O=C1CC(Sc2nnc(-c3ccccc3O)o2)C(=O)N1c1ccccc1 (configuration not stated) | – | active: 4.61 µM
36 | COc1ccc(CCn2c(=S)[nH]c(=O)c3cccnc32)cc1OC | – | active: 0.224 µM
37 | CCCn1c(N)c(C(=O)COC(=O)c2c(C)noc2C)c(=O)n(C)c1=O | inactive: -11.4% | –
38 | Cc1cccc(NC(=O)COC(=O)c2ccc3c(c2)OCO3)c1C | inactive: 8.17% | –
39 | COc1ccc(N(C)S(=O)(=O)c2cccc(C(=O)Nc3ccc(-n4cnnn4)cc3)c2)cc1 | – | active: 18.4 µM
40 | CC1/C(=N/O)CC(c2ccccc2)NC1c1ccccc1 (configuration not stated) | – | inconclusive [inhibitor, single point]
41 | CCOc1ccc2ncc(C(=O)c3ccc(OC)cc3)c(N3CCN(CC)CC3)c2c1 | – | inconclusive [inhibitor, partial curve]
42 | CNC(=O)C1CCC(=O)N1Cc1ccccc1Cl (configuration not stated) | inactive: -3.35% | –
43 | Cn1c(=O)c(C(=O)NC2CCCCCC2)c(O)c2ccccc21 | inactive: -5.78% | –
44 | Cc1cc(Cl)ccc1NC(=O)CCC(=O)O | inactive: -2.41% | –
45 | COc1ccccc1C(CCNCc1ccc(N(C)C)cc1)c1ccc(OC(C)C)cc1 (configuration not stated) | – | active: 20.6 µM
46 | CCCCCCCCCCCC[n+]1ccc(C)c2ccccc21 | – | active: 2 µM
47 | COc1ccc2[nH]cc(CCNc3cc(-c4cccc(C#N)c4)ncn3)c2c1 | – | active: 20.6 µM
48 | CCOC(=O)c1c(-c2cccs2)csc1NC(=O)CN1CCOCC1 | – | inconclusive [inhibitor, single point]
49 | CCOC(=O)c1sc(NC(=O)c2c(-c3ccccc3)c(-c3ccccc3)nn(C)c2=O)nc1C | – | inconclusive [inhibitor, single point]
50 | CC1CCN(C(=O)CSc2nc(-c3ccc(F)cc3)cc(C(F)(F)F)n2)CC1 | – | active: 20.6 µM
51 | O=C(NCCc1ccc(F)cc1)C(=O)NCC1CCCN1S(=O)(=O)c1ccccc1 (configuration not stated) | – | active: 10.3 µM
52 | c1ccc(C2=Nc3ccccc3OC2)cc1 | – | active: 17.8 µM

Row | Compound | activity change, negative = growth inhibition | Potency
53 | O=C(Nc1cccc2ccccc12)C(=O)C1C(=O)Nc2ccccc21 (configuration not stated) | – | inconclusive [inhibitor, single point]
54 | CC(=O)NC12CC3CC(C1)CC(C(=O)N1CCN(S(=O)(=O)c4ccc(C(C)C)cc4)CC1)(C3)C2 | – | inconclusive [inhibitor, single point]
55 | Nc1nc(CN2CCN(c3ccccc3F)CC2)nc(Nc2ccccc2)n1 | – | active: 23.1 µM
56 | CCc1ccc(Nc2nc3ccccc3nc2NS(=O)(=O)c2ccccc2)cc1 | – | active: 16.4 µM
57 | COCCSc1ccccc1C(=O)N1CCc2ccccc2C1 | inactive: 1.03% | –
58 | COc1ccc(-c2noc3c2-c2nc(-c4c(F)cccc4F)sc2CC3)cc1 | inactive: -16.9% | –
59 | Cc1ccc(NC(=O)CCC(=O)NNC(=S)Nc2ccc(F)cc2)c(C)c1 | inactive: -4.27% | –
60 | Cc1ccc(S(=O)(=O)N(C)CCCC(=O)n2nc(C)cc2C)cc1 | inactive: 1.56% | –
61 | CCCNC(=O)CCn1c(-c2ccc(C)cc2)cc(C(=O)OCC)c1C | – | inconclusive [inhibitor, single point]
62 | Cc1ccc(C(=O)COc2ccc3ccc(=O)oc3c2)cc1 | inactive: -16.8% | –
63 | O=C(Cc1ccc(NC(=O)C2CCCN(C(=O)c3ccccc3)C2)cc1)Nc1ccc(C(=O)N2CCOCC2)cc1 (configuration not stated) | – | inconclusive [inhibitor, partial curve, poor fit]
64 | O=C1OC(CCl)CN1Cc1c(Cl)cccc1Cl (configuration not stated) | inactive: 13.1% | –
65 | Cc1[nH]c(=O)c(C#N)cc1-c1ccc2nccn2c1 | inactive: -7.9% | –
66 | CC(C)N1CCN(Cc2ccc(OCc3ccccc3)cc2)CC1CCO (configuration not stated) | – | inconclusive [inhibitor, full curve, poor fit]
67 | C=CCc1cccc2cc(C(=O)NNC(=O)CC#N)c(=O)oc12 | inactive: -14.7% | –
68 | CN(c1ccccc1)S(=O)(=O)c1cccc(C(=O)Nc2ccc(N3CCOCC3)cc2)c1 | – | inconclusive [inhibitor, single point]
69 | Cc1cccc(NC(=S)NCCc2ccccc2)n1 | – | inconclusive [inhibitor, single point]
70 | O=C(NCCCOc1cccc(CN2CCCCC2)c1)c1ccc(Cl)c(Cl)c1 | – | active: 18.4 µM
71 | COc1ccc(OC)c(NC(=O)CSc2nc(C)cs2)c1 | – | inconclusive [inhibitor, single point]
72 | CN(C(=O)c1ccc2c(c1)C(=O)N(CCC1=CCCCC1)C2=O)C1CCCCC1 | – | inconclusive [inhibitor, single point]
73 | Cc1ccc(NC(=O)/C=C/c2ccccc2Cl)cc1Cl | inactive: -19.3% | –
74 | COc1ccc(NC(=O)CN2CCN(C3c4ccccc4-c4ccccc43)CC2)cc1 | – | inconclusive [inhibitor, single point]
75 | CSc1cccc(NC(=O)N2CCc3ccc(NC(=O)c4ccccn4)cc3C2)c1 | – | inconclusive [inhibitor, single point]
76 | COc1cccc(NC(=O)Cn2c(=O)n(-c3ccccc3)c(=O)c3oc4ccccc4c32)c1 | – | inconclusive [inhibitor, partial curve]
77 | Cc1ccc(NC(=O)CCc2c[nH]c3ccccc23)nc1 | – | active: 2.59 µM
